{
  "source": "PubChem BioAssay AID2546",
  "about": "(National Center for Advancing Translational Sciences (NCATS), 2010)",
  "note": "The campaign covered roughly 310,000 compounds. About 11,000 (3.5%) were called active. Inconclusive means that the source gave no clear call. Such entries were picked first, then a sample of the others. Calls follow the shape of the dose curve; as a rule, active = well fitted inhibition curve with a large enough effect; inconclusive = small, poorly fitted or top-dose-only effect, or effect the other way; inactive = flat fitted curve, though single readings scatter. No potency is given beside an inconclusive call; the fits are too rough. Potency is read from the fitted curve at half-maximal effect; tags tell the direction and shape of the fitted curve.",
  "data": [
    {"experiment": "VP16 counterscreen qHTS for inhibitors of ROR gamma transcriptional activity;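 also: Gal4-VP16 expression switched on by copper sulfate through the metallothionein promoter; nearly all actives have a fitted effect of over 50% in size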", "settings": "Drosophila S2 Gal4-VP16 UAS-luciferase, luminescence, 20 h; series mostly up to 53.6 µM", "values": [
      {"smiles": "CCCCn1c(-c2csc(CC)c2)n[nH]c1=S", "Potency": "inconclusive [inhibitor, full curve]"},
      {"smiles": "COc1cc(C(=O)NC(=S)Nc2ccccc2[N+](=O)[O-])cc(OC)c1OC", "Potency": "inconclusive [inhibitor, single point]"},
      {"smiles": "CN(C)c1ncc2nc(-c3ccccc3)c(=O)n(-c3ccccc3)c2n1", "Potency": "inactive"},
      {"smiles": "COc1ccc(NC(=S)NC23CC4CC(CC(C4)C2)C3)cc1OC", "Potency": "active: 3.55 µM"},
      {"smiles": "C=CCn1c(SCc2c(C)noc2C)nc2cc(C(=O)O)ccc2c1=O", "Potency": "inactive"},
      {"smiles": "COc1cccc(N(CC(=O)Nc2ccc3c(c2)OCO3)S(=O)(=O)c2ccccc2)c1", "Potency": "inactive"},
      {"smiles": "Cn1c(=O)n(C)c2cc(S(=O)(=O)Nc3ccc(F)cc3)ccc21", "Potency": "inconclusive [inhibitor, single point]"},
      {"smiles": "COc1ccc(C(=O)NC(=S)NNC(=O)c2ccc(NC(C)=O)cc2)cc1Br", "Potency": "inconclusive [inhibitor, single point]"},
      {"smiles": "Cc1cc(C)nc(SCc2ccc(C(=O)N/N=C/c3cccc(O)c3O)cc2)n1", "Potency": "active: 1.58 µM"},
      {"smiles": "Cc1ccc(-c2ccc(C(=O)Nc3ccccc3)o2)c2ccccc12", "Potency": "inconclusive [inhibitor, single point]"},
      {"smiles": "COC(=O)c1ccccc1NC(=S)NC(=O)c1ccc2ccccc2c1", "Potency": "inconclusive [inhibitor, partial curve, poor fit]"},
      {"smiles": "COc1ccc(NC(=O)C23CC4CC(C2)CC(c2ccc(C)cc2)(C4)C3)cc1", "Potency": "inconclusive [inhibitor, partial curve]"},
      {"smiles": "Cc1ccc(NC(=S)c2ccccc2)cc1", "Potency": "inconclusive [inhibitor, single point]"},
      {"smiles": "COc1ccc(CNC(=O)c2ccc3oc(C(C)C)nc3c2)cc1", "Potency": "inconclusive [activator, single point]"},
      {"smiles": "Cc1ccc2nc(CCc3ccc(N)cc3)[nH]c2c1", "Potency": "inconclusive [activator, single point]"},
      {"smiles": "Cc1cccc(OCc2nnc(SCC(=O)N3c4ccccc4CC3C)n2C)c1C", "note": "(stereo not drawn)", "Potency": "active: 14.1 µM"},
      {"smiles": "COc1ccc(Oc2ccc(/C=C/C(=O)c3cccc(OC)c3)cc2[N+](=O)[O-])cc1", "Potency": "inconclusive [inhibitor, single point]"},
      {"smiles": "COc1ccccc1C(=O)N/N=C/c1ccc(Cl)s1", "Potency": "inconclusive [inhibitor, single point]"},
      {"smiles": "Oc1ccc(/C=N/NC(=S)N2CCOCC2)cc1", "Potency": "inconclusive [inhibitor, partial curve]"},
      {"smiles": "CCNC(=O)NC(=O)C(C)OC(=O)CCS(=O)(=O)c1ccc(C)cc1", "note": "(stereo not drawn)", "Potency": "inactive"},
      {"smiles": "CCCc1nnc(NC(=O)c2nc(S(=O)(=O)Cc3cccc(C)c3)ncc2Cl)s1", "Potency": "inconclusive [inhibitor, single point]"},
      {"smiles": "c1ccc(-n2ncc3c(N4CCCC4)ncnc32)cc1", "Potency": "inconclusive [inhibitor, partial curve, poor fit]"},
      {"smiles": "Oc1ccc(N=Cc2sc3ccccc3c2Cl)cc1", "Potency": "inconclusive [inhibitor, single point]"},
      {"smiles": "Cc1ccccc1OCc1nc2c3cnn(C)c3ncn2n1", "Potency": "inconclusive [activator, single point]"},
      {"smiles": "CC(=O)Nc1ccc(/C(C)=N/Nc2nc(Nc3ccccc3)nc(N3CCOCC3)n2)cc1", "Potency": "inconclusive [inhibitor, single point]"},
      {"smiles": "Cc1cccc(C)c1NC(=O)CCCN1C(=O)C(c2ccccc2)Oc2cccnc21", "note": "(stereo not drawn)", "Potency": "inactive"},
      {"smiles": "O=C(Nc1ccc(F)cc1F)Nc1csc2ccccc12", "Potency": "inconclusive [inhibitor, single point]"},
      {"smiles": "CCC(C)(C)NC(=O)COc1ccc(C(=O)c2ccccc2)cc1", "Potency": "active: 12.6 µM"},
      {"smiles": "Cc1ccc(SCc2cc(=O)n3ccsc3n2)c(C)c1", "Potency": "inconclusive [activator, full curve]"},
      {"smiles": "CC(C)(C)c1ccc(/C=C2/SC(N3CCCC3)=NC2=O)cc1", "Potency": "inconclusive [inhibitor, single point]"},
      {"smiles": "COc1ccccc1N1CCN(c2ccc(-c3ccccc3)nn2)CC1", "Potency": "inconclusive [inhibitor, partial curve]"},
      {"smiles": "CN(C)/C=C(\\C#N)S(=O)(=O)C(C)(C)C", "Potency": "inactive"},
      {"smiles": "C/C(=C\\C(=S)Nc1ccccc1)Nc1ccccc1", "Potency": "inconclusive [inhibitor, single point]"},
      {"smiles": "Cc1cc(N/N=C/c2ccc(Cl)cc2Cl)nc(NCc2ccccc2)n1", "Potency": "inconclusive [inhibitor, single point]"},
      {"smiles": "C/C(=N\\NC(=O)c1cc2ccccc2cc1O)c1ccc2c(c1)OCO2", "Potency": "inconclusive [inhibitor, single point]"},
      {"smiles": "Cc1ccc(/C(N)=N/OC(=O)c2cccc(Cn3cc(C(F)(F)F)ccc3=O)c2)cc1", "Potency": "inconclusive [inhibitor, single point]"},
      {"smiles": "CCC(=O)Nc1nnc(-c2ccc(OC)cc2)o1", "Potency": "active: 11.2 µM"},
      {"smiles": "Nn1c(Cc2cccc3ccccc23)nnc1SCCOc1ccc(Br)cc1", "Potency": "inconclusive [inhibitor, single point]"},
      {"smiles": "CC(=O)Nc1ccc(OCc2ccc(S(=O)(=O)Cc3ccccc3)cc2)cc1", "Potency": "inactive"},
      {"smiles": "Cc1ccc(NC(=O)c2cc3ccccc3cc2O)cc1", "Potency": "inconclusive [inhibitor, single point]"},
      {"smiles": "Cc1cc(C)n2nc(N)c(N=Nc3cccc(Cl)c3)c2n1", "Potency": "inconclusive [activator, full curve, poor fit]"},
      {"smiles": "COc1cc(/C=C/c2ccc3cccc(O)c3n2)cc(Cl)c1OC", "Potency": "active: 4.47 µM"},
      {"smiles": "Cc1cccc(Nc2ccccc2C(=O)OCC(=O)NCc2ccco2)c1C", "Potency": "inactive"},
      {"smiles": "COc1ccc(/C=C/C(=O)c2ccncc2)c2ccccc12", "Potency": "inconclusive [inhibitor, single point]"},
      {"smiles": "CCNc1nc(-c2ccc(Cl)cc2)cs1", "Potency": "inconclusive [inhibitor, full curve]"},
      {"smiles": "COc1ccc(C(C(=O)NCc2ccccc2)N(Cc2ccco2)C(=O)c2cnccn2)cc1", "note": "(stereo not drawn)", "Potency": "inactive"},
      {"smiles": "CCCc1cc(=O)oc2cc(C)cc(OC(C)C(=O)NCc3ccccn3)c12", "note": "(stereo not drawn)", "Potency": "inactive"},
      {"smiles": "O=C(CSc1nc(-c2ccc(F)cc2)cc(C(F)(F)F)n1)NCc1cccs1", "Potency": "inconclusive [activator, single point]"},
      {"smiles": "O=C(COC(=O)/C=C/c1ccccc1)Nc1cccc(Oc2ccccc2)c1", "Potency": "inconclusive [activator, single point]"},
      {"smiles": "COc1cccc([C@@H]2Oc3ccc(OC)cc3C(=O)[C@H]2O)c1", "Potency": "inconclusive [inhibitor, single point]"},
      {"smiles": "O=C(COc1cccnc1[N+](=O)[O-])N1CCc2ccccc21", "Potency": "inconclusive [activator, single point]"},
      {"smiles": "Cc1ccc(-c2nnc(SCC#CCOC(=O)c3cccs3)o2)cc1", "Potency": "inconclusive [inhibitor, partial curve]"},
      {"smiles": "Cc1cc(OC(C)C(=O)NC(Cc2c[nH]c3ccc(O)cc23)C(=O)O)c2c(C)c(C)c(=O)oc2c1", "note": "(stereo not drawn)", "Potency": "inactive"},
      {"smiles": "Cc1ccc(COc2ccsc2-c2n[nH]c(=S)n2C)cc1", "Potency": "active: 7.08 µM"},
      {"smiles": "Cc1cc(C)nc(Oc2ccc(Br)cc2)n1", "Potency": "inactive"},
      {"smiles": "COc1ccc2oc(-c3ccc(O)cc3)cc(=O)c2c1", "Potency": "active: 25.1 µM"},
      {"smiles": "O=[N+]([O-])c1ccc(O)c(/C=N\\N=C2c3ccccc3-c3ccccc32)c1", "Potency": "inconclusive [inhibitor, single point]"},
      {"smiles": "Cn1c2ccccc2c2cc(C(=O)N3CCOCC3)sc21", "Potency": "inactive"},
      {"smiles": "COc1ccccc1/C=C1\\NC(=S)N(CC2CCCO2)C1=O", "note": "(stereo not drawn)", "Potency": "active: 12.6 µM"},
      {"smiles": "CN1CC(c2ccccn2)C2(SC(=S)N(Cc3ccccc3)C2=O)C12C(=O)Nc1ccccc12", "note": "(stereo not drawn)", "Potency": "inconclusive [inhibitor, single point]"},
      {"smiles": "COc1cc2c(cc1NC(=O)C(C)OC(=O)C1CC(=O)N(Cc3ccco3)C1)oc1ccccc12", "note": "(stereo not drawn)", "Potency": "inconclusive [activator, single point]"},
      {"smiles": "COc1cc(CNc2ccc3[nH]c(=O)[nH]c3c2)cc(Br)c1OCc1ccccc1F", "Potency": "inactive"},
      {"smiles": "Nc1c(C(=O)C2CC2)sc2nc(-c3ccccc3)cc(C(F)(F)F)c12", "Potency": "inconclusive [inhibitor, single point]"},
      {"smiles": "OCCC1CN(Cc2nc3c(s2)CCCC3)CCN1CCc1ccccc1", "note": "(stereo not drawn)", "Potency": "inactive"},
      {"smiles": "CCc1ccc(-n2c(=S)sc3c(=O)n(-c4ccccc4OC)c(=S)[nH]c32)cc1", "Potency": "inactive"},
      {"smiles": "C/C(=N\\NC(=S)NCc1ccccc1)c1ccc(C(C)(C)C)cc1", "Potency": "active: 1.41 µM"},
      {"smiles": "C/C(=N/NC(=O)c1sc(=S)n(C)c1C)c1ccccc1", "Potency": "inconclusive [inhibitor, single point]"},
      {"smiles": "C=C(C)CC1N(c2cccc(OC)c2)C(=O)C2C(C(=O)O)C3C=CC21O3", "note": "(stereo not drawn)", "Potency": "inactive"},
      {"smiles": "S=C(NCc1ccco1)N1CCN(c2cccc(Cl)c2)CC1", "Potency": "inactive"},
      {"smiles": "O=S(=O)(NCC1CCCO1)c1ccc(NS(=O)(=O)c2ccc(F)cc2)cc1", "note": "(stereo not drawn)", "Potency": "inactive"},
      {"smiles": "CN(C)c1ccc(NC(=O)c2cccc(N3C(=O)CCC3=O)c2)cc1", "Potency": "inconclusive [inhibitor, partial curve, poor fit]"},
      {"smiles": "NNC(=O)c1sc(-c2ccccc2)cc1N", "Potency": "inconclusive [inhibitor, single point]"},
      {"smiles": "COc1c(OC)c(O)c2c(=O)c(O)c(-c3ccccc3)oc2c1OC", "Potency": "inconclusive [inhibitor, single point]"}
    ]}
  ]
}
